Test results reported in the supplement of paper PMC4466236.
Whole data set: some 33,000 sequences, median “E-score (dimensionless, -0.5 to 0.5)” near -0.058, cut for the highest 2% near 0.35. The list shows a part of the results.

Tested on: MvaT
Test: PBM 8-mer E-score (mean of HK and ME arrays) (E-score (dimensionless, -0.5 to 0.5)); higher = stronger relative binding preference; most listed sequences are background and not binding sites
Experimental: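 Protein binding microarray: GST-tagged full-length MvaT (P. aeruginosa PAO1) bound to two universal double-stranded 60-mer arrays (ME and HK), each with a constant 25-mer primer and a variable 35-mer region covering all 8-mers. The 8-mer E-score (rank-based, range -0.5 to 0.5, >0.45 = specific binding) is the mean of the two arrays.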

Sequence | PBM 8-mer E-score
CCAGTCGC | -0.0501
AGTGCCGC | -0.158
CGCCCCGA | -0.241
AGGTTAAG | -0.115
CCCCAACA | -0.0459
CCTGAAGG | -0.367
GCACAAAC | 0.0194
GATGGGAA | 0.0299
CATCGATC | 0.00867
CAGACGCA | -0.0153
CGGTAACG | -0.127
GGCGAGCC | -0.343
CGGCCTAA | -0.0439
CTAGCGAA | -0.0376
AGATGAAA | 0.0218
GATGGGCA | -0.124
GGTTCCTA | 0.0149
ACAAGAGG | 0.00448
CAAGTCAA | -0.0111
ACAGTCCA | -0.146
TAATGCTA | 0.15
GTGGCTCA | -0.12
CAACCATG | 0.0287
AGCTTGAG | -0.246
CCGCGGCA | -0.0718

Sequence | PBM 8-mer E-score
CGCTTCCC | -0.256
TAGTAGCA | 0.118
AAAATCTG | 0.136
AAAGCACC | -0.0969
ATCTGTGA | -0.0144
CGTATGAG | -0.155
ATCTCCAG | -0.00587
GGCATGCC | -0.332
CTCATGCA | -0.224
TTATTAAA | 0.409
CATGCTGC | -0.164
CTGATAGA | 0.0644
ATTTTCTC | 0.149
AGTAGCCA | -0.2
AGATTCGA | 0.0693
AAAGACCT | -0.0613
GATTGATA | 0.171
CTCAAGTC | -0.11
AACGGGGC | 0.0256
CCCTTATA | 0.138
AAGGAAAG | -0.202
CGTAGTCC | -0.179
AAGGTGCA | -0.222
CTTGTGAA | 0.132
AACGTCAA | 0.152

Sequence | PBM 8-mer E-score
AATATGGT | 0.271
ATAGGACC | -0.0799
AAACGCCA | -0.0208
ATCGGGCA | 0.0419
TCAAACCA | 0.0221
ACCAGCAG | -0.232
CACTCTAC | 0.0171
CGGTGGTC | -0.24
AGCCAGGA | -0.196
ACATTCAT | 0.0623
GTATTAGA | 0.267
GCGGAGCC | -0.277
GGCTCACC | -0.247
TGCAACAA | 0.201
ATACCACC | 0.102
CATGCTAG | -0.123
CATATGTC | 0.121
ATAAGATG | 0.0857
AATTCAAG | 0.0404
ACTTGGGA | 0.143
GCTCAAAA | 0.0525
CTCTATCC | -0.0794
CTTGCTCC | -0.0951
GTCGACTA | 0.0337
GGTTCTAC | -0.17

Sequence | PBM 8-mer E-score
CGGTGTGA | -0.0771
GAATGCGC | -0.149
ATGACTAA | 0.208
CCTGGGGA | -0.214
CAAGAGCG | -0.109
ACCGATGC | -0.306
GTAGACAC | -0.0921
AATGTGGA | 0.122
CATTCAGG | -0.0753
CATAGGGC | -0.137
GACGGGTA | 0.0024
ACAGGCAA | 0.0171
GTGAAGCA | -0.134
GCCAAAGA | -0.154
AGAGCGGC | -0.266
ATATGATC | 0.283
ATTGCCAA | 0.105
CATGAGAA | -0.0314
CCTGGGTA | -0.145
CTTCCGTC | -0.0303
AGCCCCAT | -0.183
CCATGGGA | -0.39
CCGGGGCA | -0.218
CCATTCAC | -0.0068
AAAACCCT | -0.199

Sequence | PBM 8-mer E-score
ACTCGGCG | -0.0863
CTTGCTAA | 0.0366
CGTTTACA | -0.0355
CCATCTAG | -0.101
GCTGCTAC | -0.18
GATACTGA | -0.0332
CCCATTAC | -0.0724
GGGCCGAC | -0.267
CCACCAAA | 0.0699
ACCGTATG | -0.147
ACCAAGAT | 0.0847
AGTGAAGG | -0.288
CAGGTAAA | 0.0497
GGTTGACA | -0.0531
ACATAACT | 0.268
CACACCGA | -0.119
ACAGGGAT | -0.111
ATCGAAGC | -0.0708
CATGCGAG | -0.203
GCTGAGCC | -0.287
AGCTTCAG | -0.266
AAGAAAGG | 0.0684
AGAAAATG | 0.201
CAGGGACC | -0.216
CGTCGTTC | -0.0551

Sequence | PBM 8-mer E-score
ACCAACCA | -0.0431
GATCAGCC | -0.302
TGCAATAA | 0.234
CCGTTAAG | 0.0915
CGGATTGA | -0.0499
AACGTGAC | -0.0917
CGGTAGAA | 0.0777
ATTGACGG | 0.011
AGCGGATC | -0.069
AGTTTGGG | 0.143
AATCAGTG | 0.0916
AATGATGC | -0.0782
AGCAAAAC | 0.079
GAGGTACC | -0.3
AAGTGGTC | -0.137
CTGCCATC | -0.179
AGAAGTAA | 0.253
ATTCTGTA | 0.0768
CGACACCC | -0.217
ACCCGCTA | -0.0171
CGCATCTA | -0.0164
CATGTCCC | -0.227
AAATTATG | 0.233
TACGAGGA | -0.05
AATACTTA | 0.344

Sequence | PBM 8-mer E-score
CCGCAGTA | -0.149
ACATTAGT | 0.279
GTAAGCAA | 0.0445
CTGACATC | -0.0215
ATTTCAGC | 0.0672
CTTTTGGC | -0.0767
AATGCAAC | 0.0933
TAATTCGA | 0.173
ATACTTAA | 0.241
CAGTTTAA | 0.26
ACCTGGGA | -0.206
CAGGGGCC | -0.312
ACTCGAGA | -0.0399
GCGGGCAC | -0.152
CTATAAGA | 0.188
GCCCTTAC | -0.162
ACCACCAG | -0.174
TCGAAACA | 0.057
CTTCCAGC | -0.0945
CTCCTCAG | -0.338
TCCGTCGA | -0.064
GTCATCGA | -0.192
CGGAGGTA | -0.185
ATGCTTTA | 0.0222
TCCTGCGA | -0.167

Sequence | PBM 8-mer E-score
GGCGCGCA | -0.19
CTTGTAAC | 0.212
AGGTTACG | -0.0371
CTCGAGTA | -0.0253
AGAGGTCG | -0.187
AGCTTTTC | -0.0371
TGGATTAA | 0.269
GTGCTAAC | 0.0349
AATTTACC | 0.281
CTCCCGTA | -0.141
AGCCGAAA | 0.0588
CGCTGACA | 0.0257
GGCTTGCA | -0.0802
CGTGCCTC | -0.298
GAACTGAA | 0.063
TAAGGACA | 0.0183
GCACTTAC | -0.106
AGTCCGGC | -0.271
ATCATATA | 0.338
CCACAATC | -0.0349
CTCCTATA | 0.0431
ACAATGCT | 0.0122
CTGACACC | -0.173
ACGGACCA | -0.1
ACATAGAG | -0.0508

Sequence | PBM 8-mer E-score
CAGGAAGA | -0.0498
ACGTCTGA | -0.195
AATCGACT | 0.0325
CAATAGCC | -0.065
CTAGGAGC | -0.0698
CAAAGAGG | -0.125
GATTCATA | 0.179
GACACGAC | -0.117
CCTCGCTC | -0.168
TGGTTCAA | -0.00264
ACGTGACT | -0.0198
CCTAGCAA | -0.102
ATGTGGGG | -0.112
AGCTGTAG | -0.313
CGACCGCA | -0.153
AATGACTA | 0.149
AAGATGAT | 0.0126
ACTATAAG | 0.273
GAGGTGGC | -0.275
GCCCCCAA | -0.341
ACATTGGT | 0.0399
GGTAGAAC | 0.0123
ATACGTGC | 0.0896
AACTACCC | 0.145
CACAGGTG | -0.221

Sequence | PBM 8-mer E-score
CTGCCCAA | -0.103
GTTGACAA | -0.00184
AGATTTAA | 0.273
AAGGTAGA | -0.00218
CTAAGGCA | -0.0863
ACACGCGC | -0.0849
AATCGTAG | -0.0133
CGTCCCAC | -0.209
CCGCACAA | -0.0359
ATGCACCG | -0.0477
AAAGAATT | 0.23
CTCGAATA | 0.253
GAGTTGCA | 0.0186
AGCAACAC | -0.0627
GGTCCACC | -0.272
CAGGGTAG | -0.255
AGTCTACG | -0.11
AGCTATCA | -0.0749
GTCCAGAC | -0.116
AACGGTAA | 0.0797
ACTCCCGA | 0.0201
GTAGGGTA | -0.108
GAAAGAAA | 0.245
GCTACTGA | -0.203
CAGTGACC | -0.18

Sequence | PBM 8-mer E-score
CCTGCAAA | -0.0388
CTAGTCAC | 0.0469
CCGGGCTA | -0.193
GTAAGCAC | -0.085
TACAAGAA | 0.121
ACTACACC | 0.154
AGGTCTCC | -0.283
CAATAGAA | 0.142
CTCTCTAA | -0.00493
ATCTCCTA | -0.128
CTGAGCCC | -0.295
GTGGCAAA | -0.0252
ATGGGGGG | -0.279
ACGTGCAC | -0.161
GCCTGAGC | -0.284
ACTACGGG | -0.131
AGGAACGC | -0.195
GAGCATTA | 0.105
CTTTCGGA | -0.0214
ATCCCAAT | 0.00434
AGAGCGCA | -0.139
AACTCGAC | -0.0729
AGTGCCTA | -0.197
ACTGCGAG | -0.0652
AATTTGGG | 0.086

Sequence | PBM 8-mer E-score
AAGAGGGT | -0.231
AGTCAATC | -0.0872
CGGGACGC | -0.276
AAGAGCTC | -0.244
CTAGCATC | -0.0697
ACAACTGT | -0.0333
AAGTGCAG | 0.0681
CACCTAGG | -0.222
ACCCGATC | -0.307
ACGCTCCG | -0.182
GATCTTAA | 0.186
AGGCTTCG | -0.322
GCACGCGC | -0.000524
ACGAGATC | -0.0867
AGACTGAC | -0.123
CTTGCCTA | -0.131
ACTGGGCT | -0.163
AGTAATTG | 0.293
GTTAAGGA | 0.0214
CACCGGCA | -0.177
CTGCGTCA | -0.311
AGTTCGTC | 0.0584
ATTGCCTA | -0.0142
CGCGTCCC | -0.132
ATGTATAG | 0.266

Sequence | PBM 8-mer E-score
AGCCCTCC | -0.35
CGAGGCGA | -0.187
AATACACG | 0.159
AGGCGGAC | -0.132
CGACATGC | -0.207
AGTTACGA | 0.115
AACTTTAG | 0.211
CTCTCTTC | -0.237
AAGCTCAA | -0.0505
GCTGAAGC | -0.298
GATATTAA | 0.438
AGCGAGCG | -0.127
GATCTTAC | 0.0884
GACACGTC | -0.221
CTTCAAGA | -0.13
CCGGTATC | -0.0153
AACGCAGG | -0.174
CGTTGGAC | -0.225
AAAGAAGA | 0.0122
ACGGTGGC | -0.15
CAAATGGC | -0.0047
ACGATGAA | -0.0301
ACCCGGTG | -0.246
ATTGTCCC | 0.108
GATAACCC | -0.0706

Sequence | PBM 8-mer E-score
CGACGAAA | 0.0336
CGGTCTGC | -0.102
AATTCCAT | 0.174
GACTTGGA | -0.101
AGATGCGG | -0.159
GGCCAAAA | -0.144
CACCATAG | -0.0791
CATAACAC | 0.0791
CCAACCTA | -0.0513
CAGCTGCG | -0.167
CATGCAAA | -0.041
CATCTCAG | -0.134
ACGACACC | 0.0154
AGCACTCA | -0.0297
GACATTTA | 0.256
CATCATCA | -0.0293
AAGGGCGG | -0.217
CGTACACG | -0.0976
ACCGTAGA | -0.0538
